92 sequences from the supplement of paper PMC10338343 can be followed below.

± gives the standard deviation. Over roughly 6,600 sequences, “pre-steady-state target cleavage rate” has its median near 0.07; the highest 2% begin near 0.72. This is a selection; strong and weak results do not stand in their true shares.

The assay relates to MIWI (PIWIL1) piRISC loaded with Kctd7 piRNA (30 nt). In words: pre-steady-state target cleavage rate (min^-1); MIWI and MILI are mouse PIWI proteins and EfPiwi is from a freshwater sponge; tags in brackets are library labels; higher = faster piRNA-guided slicing of the target. The conditions noted are these: guide: Kctd7 piRNA 5'p-UGUUAAUCUCUCAGAGAAGGUGACAGUGAU; auxiliary factor: 500 nM mouse GTSF1. In short, it runs like this:
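Using HEPES–potassium acetate buffer at 33 °C, 1 nM active affinity-purified piRISC with a single synthetic guide was mixed with 0.1 nM transcribed, DNA-blocked target RNA library for 0–8 or 0–960 min, with or without 500 nM GTSF1 partner protein. Uncleaved targets were sequenced and normalised to depth and to weakly complementary targets, and three trials were pooled with k3 capped at 0.0001 min^-1. A burst-and-steady-state fit gave the pre-steady-state cleavage rate.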
With UAGUGUGUCACCUUCUCUGACACAUUAACA, the “pre-steady-state target cleavage rate” value was determined as 0.00703 ± 0.0044.

Consider UUCACUGUCACCUUCUCUGACACAUUAACA, for which the “pre-steady-state target cleavage rate” value was determined as 0.0791 ± 0.0098.

As for UAGUGACACACUUCUCUGAGAGAUUAACA, the “pre-steady-state target cleavage rate” value is 0.213 ± 0.02.

Take AUCACUCUCACCUUCUCUGAGAGAAUAACA: the “pre-steady-state target cleavage rate” value amounted to 0.196 ± 0.033.

With UAGUGUGUCACCUUGUCUGAGAGAUUUACA, the “pre-steady-state target cleavage rate” value is 0.0723 ± 0.022.

AUCACUGUCACCUUCUGUGAGAGAAUAACA: the “pre-steady-state target cleavage rate” value was 0.237 ± 0.038.

UAGACUGUCACCAUCUCUGAGAGAUUAUCA: the “pre-steady-state target cleavage rate” value was 0.252 ± 0.032.

With UUCACUGUCACCUACUCUCAGAGAUUAACA, the “pre-steady-state target cleavage rate” value is 0.0671 ± 0.0072.

Turning to UAGACUGUCAGCUUCUCUGAGAGAUUUACA, the “pre-steady-state target cleavage rate” value was determined as 0.17 ± 0.029.

For UAGUGAGACACCUUCUCUGAGACAUUAACA, the “pre-steady-state target cleavage rate” value was found to be 0.0818 ± 0.012.

With UAGUGACAGACCUUCUGUGAGAGUUUAACA, the “pre-steady-state target cleavage rate” value turned out to be 0.0265 ± 0.0065.

With UAGUGUGUCACCUUCCCUGAGAGAUUAACA, the “pre-steady-state target cleavage rate” value is 0.373 ± 0.057.

In the case of UAGUGUGCCACCUUCUCUGAGAGAUUAACA, the “pre-steady-state target cleavage rate” value was determined as 0.625 ± 0.05.

With UAGACACACACCUUCUCUGAGAGAUUAUGA, the “pre-steady-state target cleavage rate” value came to 0.0824 ± 0.022.

On to AUCACUGUCACCUCUCUCUGAGAGAUUAACA, for which the “pre-steady-state target cleavage rate” value is 0.515 ± 0.031.

For UAGACAGUCACCUUCUCUGAGAGAUUAAGA, the “pre-steady-state target cleavage rate” value amounted to 0.164 ± 0.025.

For UAGUGAGUCACCUUCUGUGAGAGAUUAAGA, the “pre-steady-state target cleavage rate” value is 0.0688 ± 0.015.

UUCACUCAGACCUUCUCUGAGAGAUUAACA: the “pre-steady-state target cleavage rate” value came to 0.431 ± 0.024.

AUGACUGUCACCUUCUCUGAGAGUUUAACA: the “pre-steady-state target cleavage rate” value was found to be 0.276 ± 0.039.

On to UAGUGAGACACCUUCUCUGAGAGAUUAUGA, for which the “pre-steady-state target cleavage rate” value is 0.0557 ± 0.014.

With UAGUGAGUGACCUUCUGUGAGAGAUUAACA, the “pre-steady-state target cleavage rate” value was found to be 0.342 ± 0.023.

Turning to UAGUGAGUCACCUUCUCUGACAGAUUAUCA, the “pre-steady-state target cleavage rate” value was determined as 0.0598 ± 0.014.

UAGUCUGUCACCUUCUCUGAGACUUUAACA: the “pre-steady-state target cleavage rate” value came out at 0.0402 ± 0.011.

Take UAGUGACUCACCUUCUCUGUGAGAUUAACA: the “pre-steady-state target cleavage rate” value amounted to 0.168 ± 0.013.

As to UAGUGACAGGCCUUCUCUGAGAGAUUAACA, the “pre-steady-state target cleavage rate” value is 0.123 ± 0.014.

Regarding UAGUGACAGACCUUCACUGAGACAUUAACA, the “pre-steady-state target cleavage rate” value came to 0.018 ± 0.006.

For the sequence UAGUGACUCACCUUCUCUGAGAGUAAAACA, the “pre-steady-state target cleavage rate” value came out at 0.0828 ± 0.011.

For the sequence UAGACCUGUCACCUUCUCUGAGAGAUUAACA, the “pre-steady-state target cleavage rate” value is 0.652 ± 0.043.

AUCACUGUCACCUUCUCUCAGAGAUUUACA: the “pre-steady-state target cleavage rate” value stood at 0.125 ± 0.018.

For the sequence UAGUGACUCACCUUCUCAGACAGAUUAACA, the “pre-steady-state target cleavage rate” value was determined as 0.0193 ± 0.0039.

UAGACAGUCACCUUCUCUGAGAGAUUAUGA: the “pre-steady-state target cleavage rate” value is 0.101 ± 0.017.

For AUCACUGUCACCUUCACUGAGAGUUUAACA, the “pre-steady-state target cleavage rate” value amounted to 0.576 ± 0.098.

AUCACUGUCACCUAGUCUGAGAGAUUAACA: the “pre-steady-state target cleavage rate” value is 0.627 ± 0.025.

Turning to UAGUGACAGUGCUUCUCUGAGAGAUUAACCA, the “pre-steady-state target cleavage rate” value was 0.0112 ± 0.0033.

UACACUGUCACCUUCUCUGUGUGAUUAACA: the “pre-steady-state target cleavage rate” value is 0.0208 ± 0.011.

Turning to UAGUGACAGUGCAUCUCUGAGAGAUUAAGA, the “pre-steady-state target cleavage rate” value is less than 0.0001.

On to UACACUGUCACCUUGUCUCAGAGAUUAACA, for which the “pre-steady-state target cleavage rate” value is 0.0344 ± 0.0058.

Take UAGUGUGUCACCUUCUCUGAGAGAUAAUCA: the “pre-steady-state target cleavage rate” value turned out to be 0.143 ± 0.036.

Turning to AUCACACUCACCUUCUCUGAGAGAUUAACA, the “pre-steady-state target cleavage rate” value amounted to 0.643 ± 0.04.

For UAGUGUGUCACGCUUCUCUGAGAGAUUAACA, the “pre-steady-state target cleavage rate” value came to 0.411 ± 0.028.

Take UAGUGUGUCACCUUCUCUGACAGAUUAAGA: the “pre-steady-state target cleavage rate” value was determined as 0.00756 ± 0.0046.

UUCACUGUCUCCUUCUGUGAGAGAUUAACA: the “pre-steady-state target cleavage rate” value came out at 0.589 ± 0.037.

UAGUGACAGUCCUUCUGUGAGUGAUUAACA: the “pre-steady-state target cleavage rate” value is 0.00421 ± 0.0028.

As to UUCACAGUCACCUACUCUGAGAGAUUAACA, the “pre-steady-state target cleavage rate” value was determined as 0.611 ± 0.034.

Consider AUCACUGUCACCUUCUCAGUGAGAUUAACA, for which the “pre-steady-state target cleavage rate” value is 0.0218 ± 0.0055.

On to UUCACUGUCACCUUCUCUGAGAGAAUUAACA, for which the “pre-steady-state target cleavage rate” value was found to be 0.641 ± 0.098.

Regarding UACACUGUCACCUUCUCUGUGAGAUUAUCA, the “pre-steady-state target cleavage rate” value was 0.115 ± 0.036.

Regarding UACACUGUGACCUUCUCUGAGUGAUUAACA, the “pre-steady-state target cleavage rate” value is 0.0211 ± 0.0063.

With UUCACUGUGACCUUCUCUGAGUGAUUAACA, the “pre-steady-state target cleavage rate” value amounted to 0.0243 ± 0.003.

With UAGUGUGUCACCAUCUCUGAGAGAUUUUGA, the “pre-steady-state target cleavage rate” value turned out to be 0.0159 ± 0.0065.

As to UACAGACUCACCUUCUCUGAGAGAUUUUGA, the “pre-steady-state target cleavage rate” value stood at 0.0319 ± 0.0062.

AUCACUGUCACCUUCUCUGAAGAGAUUAACA: the “pre-steady-state target cleavage rate” value was 0.0111 ± 0.0049.

For UAGUGACACACCUUCUGUGUGAGAUUAACA, the “pre-steady-state target cleavage rate” value amounted to 0.0354 ± 0.0074.

For UAGUGACACACCUUCUCUGAGAGAUUAAA, the “pre-steady-state target cleavage rate” value worked out at 0.23 ± 0.052.

On to UUCACUGUCACCUUCUCUGAGACAUAUUGA, for which the “pre-steady-state target cleavage rate” value amounted to 0.00421 ± 0.0037.

For AUCACAGUCACCUUCUCUGAGAGAUUAUGA, the “pre-steady-state target cleavage rate” value was found to be 0.0483 ± 0.014.

UACACAGUCACCUUCUCUGAGAGAUAAACA: the “pre-steady-state target cleavage rate” value is 0.38 ± 0.046.

On to UACACUGUCACCUUCUCUGAGUGAUAAACA, for which the “pre-steady-state target cleavage rate” value turned out to be 0.0211 ± 0.0066.

Turning to UACUGAGUCACCUUCUCUGAGAGAUUUUGA, the “pre-steady-state target cleavage rate” value was 0.0745 ± 0.015.

UAGUGAGUCACCUUCUCUGCGAGAUUAACA: the “pre-steady-state target cleavage rate” value was 0.319 ± 0.028.

For AUCACUCACACCUUCUCUGAGAGAUUUUGA, the “pre-steady-state target cleavage rate” value was found to be 0.113 ± 0.032.

In the case of UAGAGUGUCACCUUCUCUGUGAGAUUAACA, the “pre-steady-state target cleavage rate” value was found to be 0.299 ± 0.013.

As to UACACUGUCUGGUUCUCUGAGAGAUUAAGA, the “pre-steady-state target cleavage rate” value is 0.0195 ± 0.0043.

Take UAGUGACAGUCCUUCUCUAAGAGAUUAACA: the “pre-steady-state target cleavage rate” value is 0.0145 ± 0.0044.

Regarding UACACUGUGACCUUCUCUGAGAGUUUAACA, the “pre-steady-state target cleavage rate” value worked out at 0.298 ± 0.054.

As for UUCACUGUCACCUUCUCUGUGAGAUUUUGA, the “pre-steady-state target cleavage rate” value was 0.044 ± 0.013.

In the case of UAGACUGUCAGCUUCUGUGAGAGAUUAACA, the “pre-steady-state target cleavage rate” value amounted to 0.415 ± 0.023.

In the case of UACACAGUCACCUUCUCUGUGAGAUUAACA, the “pre-steady-state target cleavage rate” value worked out at 0.175 ± 0.021.

On to AUCACUGACAGCUUCUCUGAGAGAUUAACA, for which the “pre-steady-state target cleavage rate” value was determined as 0.619 ± 0.035.

In the case of UAGUGACUCACCAUCUCUGAGAGAUUAUGA, the “pre-steady-state target cleavage rate” value is 0.00377 ± 0.0024.

Take UAGUGUGUCACCCUUCUCUGAGAGAUUAACA: the “pre-steady-state target cleavage rate” value was 0.304 ± 0.03.

In the case of AUCACUGUCAGCUUCUCUGAGAGAUUUUGA, the “pre-steady-state target cleavage rate” value turned out to be 0.0122 ± 0.005.

In the case of AUCACUGUCACCUUCUCUGUCUGAUUAAGA, the “pre-steady-state target cleavage rate” value was found to be 0.0198 ± 0.0086.

Take UAGUCUGUCACCUUCUCAGAGAGAUUUACA: the “pre-steady-state target cleavage rate” value was determined as 0.22 ± 0.026.

For the sequence UAGUGAGUCACCUUCUGUGAGAGAUAAACA, the “pre-steady-state target cleavage rate” value amounted to 0.141 ± 0.019.

For UUCACUGUCACCUUCUCUGGAGAUUAACA, the “pre-steady-state target cleavage rate” value came out at 0.176 ± 0.016.

For UAGACUGUCACCUUCUCUGAGAGAUUAUGA, the “pre-steady-state target cleavage rate” value was 0.106 ± 0.018.

For the sequence AUCACUGUCACGUUCUCUGACAGAUUAACA, the “pre-steady-state target cleavage rate” value is 0.0497 ± 0.0083.

Consider UUCACUCUCACCUUCACUGAGAGAUUAACA, for which the “pre-steady-state target cleavage rate” value was 0.341 ± 0.019.

As for AUCACUGUCACCUUCUCUGAGACAUUAUGA, the “pre-steady-state target cleavage rate” value is 0.00926 ± 0.0033.

With UAGACUGUCACGUUCUCAGAGAGAUUAACA, the “pre-steady-state target cleavage rate” value was 0.135 ± 0.0098.

For the sequence UAGUGAGUCACCUUCUCUCAGAGAAUAACA, the “pre-steady-state target cleavage rate” value was 0.0248 ± 0.0065.

Turning to UAGUGACACACCUUCUCUGAGAGAUCUAACA, the “pre-steady-state target cleavage rate” value was determined as 0.162 ± 0.038.

Regarding UUCACUGUUACCUUCUCUGAGAGAUUAACA, the “pre-steady-state target cleavage rate” value was determined as 0.342 ± 0.032.

As to UAGUGAGUCACCUUCUCUGAGAGAAAAACA, the “pre-steady-state target cleavage rate” value is 0.151 ± 0.026.

In the case of UAGUGUCUCACCAUCUCUGAGAGAUUAACA, the “pre-steady-state target cleavage rate” value came to 0.553 ± 0.035.

Consider UACACUGUCACCUUGUCUGAGAGAUAUUGA, for which the “pre-steady-state target cleavage rate” value stood at 0.118 ± 0.031.

As to UAGUGAGUCACCUACUCUGAGAGAUAUUGA, the “pre-steady-state target cleavage rate” value was 0.00386 ± 0.0037.

As for AUCACUGUCAGCUUCUCUGAGAGAUAAACA, the “pre-steady-state target cleavage rate” value was found to be 0.28 ± 0.03.

As for UUCUCUGUCACCUUCUCUGAGAGAUUAAGA, the “pre-steady-state target cleavage rate” value stood at 0.107 ± 0.021.

Turning to AUCACUGUCACCUUCAGUGAGAGAUUAACA, the “pre-steady-state target cleavage rate” value was determined as 0.0907 ± 0.016.

Turning to AUCACUCUCACCUUCUCUGAGAGUUUAACA, the “pre-steady-state target cleavage rate” value amounted to 0.156 ± 0.022.
